Laboratory results published in article PMC8770593 (Nature Communications, 2022).
Numbering of substitutions follows the chain as printed.

Legend:
Test in all cases: HTRF ligand-binding assay on whole transfected HEK293T/17 cells (QAPB saturation; competition with QAPB tracer)
wild-type α2CAR = target: T1, wild-type α2CAR (Homo sapiens, UniProt P18825); settings: saturation binding of QAPB
T1 sequence (P18825 37-462 limits assumed): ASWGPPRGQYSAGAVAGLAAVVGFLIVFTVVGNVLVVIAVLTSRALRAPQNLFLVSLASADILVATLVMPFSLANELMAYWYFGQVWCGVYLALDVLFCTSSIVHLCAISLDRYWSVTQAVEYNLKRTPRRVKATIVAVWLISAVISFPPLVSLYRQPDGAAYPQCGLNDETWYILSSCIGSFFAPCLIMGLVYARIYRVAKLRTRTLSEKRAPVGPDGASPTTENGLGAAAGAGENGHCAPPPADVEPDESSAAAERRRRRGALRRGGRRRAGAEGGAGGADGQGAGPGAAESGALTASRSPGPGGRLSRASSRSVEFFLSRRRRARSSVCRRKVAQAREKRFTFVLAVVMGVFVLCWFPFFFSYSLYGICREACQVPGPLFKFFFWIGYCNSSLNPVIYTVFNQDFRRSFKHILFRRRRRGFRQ

α1BAR-α2C(YLLY) chimera = target: T2, α1BAR-α2C(YLLY) chimera (Homo sapiens, UniProt P35368, A122L/L314Y/V197L/W121Y); settings: saturation binding of QAPB, whole cells
T2 sequence (P35368 35-520 W121Y/A122L/V197L/L314Y): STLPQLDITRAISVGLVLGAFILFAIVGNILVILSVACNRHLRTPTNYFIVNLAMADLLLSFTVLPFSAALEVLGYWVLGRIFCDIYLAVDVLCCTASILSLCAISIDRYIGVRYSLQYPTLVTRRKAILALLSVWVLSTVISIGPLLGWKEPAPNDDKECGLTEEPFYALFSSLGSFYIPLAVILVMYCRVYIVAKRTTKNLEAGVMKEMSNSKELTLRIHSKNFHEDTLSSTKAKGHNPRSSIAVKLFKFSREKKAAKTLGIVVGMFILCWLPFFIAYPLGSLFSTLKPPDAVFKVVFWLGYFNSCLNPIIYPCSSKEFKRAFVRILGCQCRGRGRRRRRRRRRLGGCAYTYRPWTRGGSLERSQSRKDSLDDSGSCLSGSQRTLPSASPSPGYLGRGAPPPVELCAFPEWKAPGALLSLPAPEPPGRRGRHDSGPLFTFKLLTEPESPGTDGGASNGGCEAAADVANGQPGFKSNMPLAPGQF

[1] = target: T3, α1BAR-α2C(L^45.52) chimera (V197^45.52→L) (Homo sapiens, UniProt P35368, V197L); settings: saturation binding of QAPB, whole cells
T3 sequence (P35368 35-520 V197L): T2 sequence (P35368 35-520 W121Y/A122L/V197L/L314Y) with Y87W, L88A, Y280L

wild-type α1BAR = target: T4, wild-type α1BAR (Homo sapiens, UniProt P35368); settings: saturation binding of QAPB, whole cells
T4 sequence (P35368 35-520 limits assumed): T2 sequence (P35368 35-520 W121Y/A122L/V197L/L314Y) with Y87W, L88A, L163V, Y280L

For `COc1cc2nc(N3CCN(C(=O)CCC4=[N+]5C(=Cc6c(C)cc(C)n6[B-]5(F)F)C=C4)CC3)nc(N)c2cc1OC` [QAPB], the “pKD (saturation binding)” value (wild-type α2CAR) was 6.86 ± 0.035, the “pKD (saturation binding)” value (α1BAR-α2C(YLLY) chimera) was 6.10 ± 0.100 and the “pKD (saturation binding)” value [1] was 7.95 ± 0.016. The “pKD (saturation binding)” value (wild-type α1BAR) was 8.11 ± 0.050.
